Screen size: about 45,000 compounds; about 200 (0.44%) were called active. Roughly 7% stayed inconclusive and do not appear here. The call rests on the fitted dose curve; in most records, active means well fitted activation curve with a large enough effect; inconclusive means small, poorly fitted or top-dose-only effect; inactive means no such curve, though single readings can be large or run the other way. The list shows a part of the results.
assay: qHTS of TDP-43 Inhibitors: NCGC Sytravon Library Screen; conditions: yeast TDP-43 toxicity rescue, BacTiter-Glo growth, 24 h; series mostly up to 46.1 µM; growth rescue (activation): at the top concentration; further: 0% is about no effect; nearly all actives have a fitted effect of over 55% in size
In short: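 TDP-43-expressing yeast, pregrown in raffinose, seeded at OD600 0.02 in galactose medium with compound for 24 hr at 30 deg C. Growth read by BacTiter-Glo luminescence, so rescue of toxicity appears as activation.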

Row | SMILES | growth rescue (activation)
1 | Cc1ccc(-c2nn(C)c(=O)c3ccccc23)cc1S(=O)(=O)NCCCN(C)C | inactive: 6.78%
2 | O=C(Oc1ccc(NC2=NS(=O)(=O)c3ccccc32)cc1)c1cccnc1 | inactive: 3.63%
3 | Cc1c(C(=O)c2ccc([N+](=O)[O-])cc2)c(=O)n(C)c(=O)n1C | inactive: 19.4%
4 | O=C1CN(C(=O)COC(=O)CCC(=O)c2ccc(Cl)cc2)c2ccccc2N1 | inactive: 7.9%
5 | CC(=O)NCCNc1nc2cc(-c3ccc(Cl)cc3C)sc2c(=O)n1C | inactive: 4.09%
6 | Cc1ccc(NC(=O)c2ccc(OCC3CCCO3)cc2)c(C)c1 (centres undefined) | inactive: 8.01%
7 | Cc1cccc(N(C(=O)CCC(=O)Nc2nccs2)C(C(=O)NC(C)(C)C)c2ccc(O)cc2)c1 (centres undefined) | inactive: 8.35%
8 | COC(=O)c1ccc(NC(=O)Nc2ccccc2F)cc1 | inactive: -1.18%
9 | COc1ccc(/C=C2\CCC/C(=C\C=N\N(C)C)C2=O)cc1 | inactive: 15.8%
10 | Cn1c(/C=N/Nc2nc3ccccc3[nH]2)nc2ccccc21 | inactive: -4.38%
11 | O=C(CSc1ccccc1F)NC(=O)c1ccc(Cl)cc1 | inactive: 36.7%
12 | CCc1nc2ccc(C(=O)NCc3ccc(OC)cc3)cn2c1N(CCC(C)C)CCN(C)C | inactive: 1.06%
13 | Cc1nc(OCC(C)C)c2sc3nc4c(cc3c2n1)COC(C)(C)C4 | inactive: -6.57%
14 | COc1ccc(CCNC(=O)COC(=O)Cc2c[nH]c3ccccc23)cc1OC | inactive: 13.2%
15 | O=C(COC(=O)c1cccc(S(=O)(=O)NCc2ccccc2)c1)c1ccc2c(c1)OCCO2 | inactive: 1.18%
16 | O=C(NC1CCCCC1)C(c1ccccc1F)N(C(=O)c1csnn1)C1CCCC1 (centres undefined) | inactive: 1.84%
17 | Cc1cc(S(=O)(=O)N2CCOCC2)ccc1OCC(=O)Nc1ccccc1F | inactive: 5.2%
18 | Cc1ccc(C(=O)COC(=O)c2cn(-c3ccccc3)nc2-c2ccccc2)cc1[N+](=O)[O-] | inactive: 20.1%
19 | Cc1ccc(C(=O)NC2CCN(CC(=O)NC3CCC(C)CC3)CC2)cc1 (centres undefined) | inactive: -2.72%
20 | COc1ccc(NC(=O)Nc2sc(NS(=O)(=O)c3ccccc3)nc2C)cc1 | inactive: -4.9%
21 | Cc1ccc2nc3c(cc(C(=O)NCCN4CCOCC4)c(=N)n3CCCN3CCOCC3)c(=O)n2c1 | inactive: 7.67%
22 | CCOc1ccc(NC(=O)c2ccc(NC(=S)NC3CCCCC3)cc2)cc1 | inactive: 21.5%
23 | Cn1c(N/N=C2\CCCc3ccccc32)nc2c1c(=O)n(Cc1ccccc1)c(=O)n2C | inactive: 19.9%
24 | O=C(c1ccc(CNS(=O)(=O)c2cccc(Cl)c2)cc1)N1CCCC1 | inactive: 10.5%
25 | COCCN1C[C@@H](CO)O[C@@H](n2cnc3c(NCc4cc(OC)c(OC)c(OC)c4)ncnc32)C1 | inactive: 0.755%
26 | COc1ccc(N2C(=O)CSC2c2cccc(F)c2)cc1 (centres undefined) | inactive: 9.5%

Row | SMILES | growth rescue (activation)
27 | COc1ccc(OC)c(NC(=O)CSC2=NN3CCCC(=O)N=C3S2)c1 | inactive: 6.68%
28 | O=C(Cn1c(CO)nc2ccccc21)NCc1ccc2c(c1)OCO2 | inactive: 20.4%
29 | CC(NC(N)=O)C(=O)Nc1ccc(Cl)c(S(=O)(=O)Nc2ccc(Br)cc2)c1 (centres undefined) | inactive: 10.6%
30 | CCn1c(SCC(=O)N/N=C/C=C/c2ccccc2[N+](=O)[O-])nnc1-c1ccccc1 | inactive: 3.98%
31 | Cc1ccc(C(=O)NC(=S)Nc2cccc(NC(=O)c3ccccc3Cl)c2)cc1[N+](=O)[O-] | inactive: 8.45%
32 | COc1cc(SC)ccc1C(=O)NCCNC(=O)c1nonc1N | inactive: -17.6%
33 | COc1cccc(C2CC(=O)Nc3n[nH]c(-c4ccccc4)c32)c1OC (centres undefined) | inactive: 5.02%
34 | CC(=O)c1cccc(Nc2ncnc3ccc(Br)cc23)c1 | inactive: -15.3%
35 | COc1cccc2c1cc1c(=O)n(CC(=O)N3CCCC3)nc(C)n12 | inactive: -15.5%
36 | CCOc1ccc(C(=O)NCC(=O)OCC(=O)Nc2ccc(C)c(S(=O)(=O)N(C)C)c2)cc1 | inactive: -6.99%
37 | NS(=O)(=O)c1ccc(CCNC(=O)c2ccc3c(c2)OCO3)cc1 | inactive: 7.9%
38 | CC1(C(=O)NCc2cccc3ccccc23)CCN1CCc1ccccc1 (centres undefined) | inactive: 0.736%
39 | Cc1noc(C(=O)Nc2cccc(O)c2)c1Cl | inactive: -5.18%
40 | CN(Cc1ccccc1)C(=O)C1CCN(S(C)(=O)=O)CC1 | inactive: 2.28%
41 | O=C(O)CNC(=O)c1ccc(NS(=O)(=O)c2ccc3ccccc3c2)cc1 | inactive: -17.1%
42 | Cc1ccc(-c2noc(CCCC(=O)NC3CCCC3)n2)cc1 | inactive: 7.84%
43 | COc1cccc(C(=O)NC2CC3CCCC(C2)N3CC(=O)Nc2ccccc2C(F)(F)F)c1 (centres undefined) | inactive: -44.1%
44 | Cc1nc(NC(=O)c2ccccc2[N+](=O)[O-])sc1C(=O)N(C)C | inactive: 6.31%
45 | CC(C)CCNC(=O)CN(Cc1ccccc1)C(=O)CCC(=O)Nc1ccccn1 | inactive: -6.03%
46 | CN(C)C(=O)c1ccc(Nc2nnc(-c3ccc(O)cc3)c3ccccc23)cc1 | inactive: -1.08%
47 | COc1cc(/C=N/NS(=O)(=O)c2ccc(C)cc2)ccc1OCc1ccc(C(=O)O)cc1 | inactive: 2.09%
48 | O=C(CSc1n[nH]c(-c2ccccc2Br)n1)NCCN1C(=O)CSC1=O | inactive: 7.64%
49 | CC(C)OCCCn1c(=S)[nH]c2ncccc2c1=O | inactive: 27.6%
50 | O=C(CSc1nnc(NC(=O)C2CC2)s1)Nc1ccccc1C(F)(F)F | inactive: 10.4%
51 | CCc1nn(CCCC(=O)NCc2cc(Br)ccc2OC)c(=O)c2cc3occc3n12 | inactive: 7.65%
52 | CCOc1ccc(OCc2ccc(C(=O)N/N=C(\C)c3ccccn3)cc2)cc1 | inactive: 2.93%

Row | SMILES | growth rescue (activation)
53 | Cc1ccc(C(=O)NNC(=O)Cn2nnc3ccccc32)cc1 | inactive: 12.6%
54 | Cc1nc(N2CCc3ccccc3C2)[nH]c(=O)c1Cc1ccccc1 | inactive: 5.57%
55 | COC(=O)Nc1ccc(S(=O)(=O)N2CCC(C(=O)NCc3ccc4c(c3)OCO4)CC2)cc1 | inactive: -4.69%
56 | COc1ccc(C(CC(=O)Nc2ncccc2C)N2Cc3ccccc3C2=O)cc1 (centres undefined) | inactive: -10.2%
57 | O=C1/C(=C/c2ccc(O)cc2)COc2ccccc21 | inactive: 2.18%
58 | Cc1ccnc(NC(=O)CCC(=O)N(CC(=O)NC(C)(C)C)c2ccc3c(c2)OCCO3)c1 | inactive: -8.56%
59 | COc1ccc(C(=O)COc2ccc(F)cc2)c(O)c1 | inactive: -2.48%
60 | CCCOc1cccc(C(=O)N2CCN(C(=O)C3CCCO3)CC2)c1 (centres undefined) | inactive: 6.56%
61 | O=C1CN(C(=O)CSc2nc3ccccc3n2CCc2ccccc2)c2ccccc2N1 | inactive: -7.55%
62 | Cc1cc(C)n(CC(=O)c2cccc(N)c2)n1 | inactive: 12.1%
63 | O=C(Nc1cccc2nsnc12)c1cccnc1 | inactive: -13.6%
64 | COCCc1ccc(OC2(C)CCN(Cc3cccn3-c3nccs3)C2)cc1 (centres undefined) | inactive: -4.72%
65 | COCCCN=C1NN=C(c2cc(C)n(-c3ccccc3)c2C)CS1 | inactive: 1.54%
66 | Cc1csc(NC(=O)c2ccc3nc[nH]c3c2)n1 | inactive: -1.43%
67 | CC1(C)Oc2ccc(C(=O)Nc3ccccc3F)cc2N(CC(=O)N2CCOCC2)C1=O | inactive: 8.55%
68 | CCCSc1ncc(Cl)c(C(=O)Nc2scc(-c3ccc(C)cc3)c2C(=O)OCC)n1 | inactive: 7.26%
69 | CCOC(=O)CCC(NC(=O)CCCCC(=O)NC(CCC(=O)OCC)C(=O)OCC)C(=O)OCC (centres undefined) | inactive: 22.7%
70 | CN(C)c1nc(-c2cccnc2)nc(-c2ccc(Cl)cc2)c1C#N | inactive: 7.56%
71 | CC(=O)c1ccc(Nc2nc(C(N)C(C)C)cs2)cc1 (centres undefined) | inactive: 7.85%
72 | COC(=O)c1c(NC(=O)C(C)C)sc(C(=O)N2CCOCC2)c1C | inactive: -9.21%
73 | CCCCN(C)C(=O)c1ccc2c(c1)N(Cc1ccc(F)cc1)C(=O)c1ccccc1S2(=O)=O | inactive: 20.6%
74 | O=[N+]([O-])c1cccc(S(=O)(=O)N2CCN(S(=O)(=O)N3CCCCCC3)CC2)c1 | inactive: 18.8%
75 | CCOCc1c(C(=O)NC2=Nc3ccccc3NC(CC)=C2C(=O)OCC)oc2ccccc12 | inactive: 10.4%
76 | Cc1oc(-c2cccs2)nc1CN1CCN(CC(C)C)C(CCO)C1 (centres undefined) | inactive: 3.32%
77 | CCOc1ccc(S(=O)(=O)N2CCC(C(=O)N3CCCCCC3)CC2)cc1Cl | inactive: 35.6%
78 | CCN(CCn1cccn1)C(=O)CCc1nnc(CCc2ccccc2OC)o1 | inactive: -4.63%

Row | SMILES | growth rescue (activation)
79 | COc1cccc(C(=O)OCCCN(C)C)c1 | inactive: 9.91%
80 | COc1ccc(C2c3c(ncn(CCCO)c3=N)Oc3ccc4ccccc4c32)cc1 (centres undefined) | inactive: 4.82%
81 | OC(CNCCc1ccccc1)COc1ccc(OCC(O)CNCCc2ccccc2)cc1 (centres undefined) | inactive: 6.52%
82 | CCNC(=O)COc1ccc(F)cc1C(=O)c1cnn(-c2ccccc2)c1 | inactive: -0.11%
83 | CCN(CC(=O)NCc1cccs1)C(=O)CCOc1ccccc1 | inactive: -0.0675%
84 | COCCN(C(=O)CSc1nnc(-c2ccccc2C)n1C)c1c(N)n(Cc2ccccc2)c(=O)[nH]c1=O | inactive: 10.9%
85 | Cc1c(-c2ccccc2)nc2ccccc2c1C(=O)OCC(=O)Nc1ncc(C(F)(F)F)cc1Cl | inactive: 5.36%
86 | O=C(CC1SC(N2CCCCC2)=NC1=O)Nc1cccc(C(=O)NCc2ccccc2)c1 (centres undefined) | inactive: 3.12%
87 | Cc1c(C(=O)Nc2ccccc2)sc2nc[nH]c(=O)c12 | inactive: 17.9%
88 | Cc1ccc(NC(=S)N(Cc2ccco2)C2CCN(C(C)C)CC2)cc1 | inactive: -23.9%
89 | COC(=O)c1ccccc1NC(=O)COC(=O)c1ccccc1N=Nc1ccc(N(C)C)cc1 | inactive: -14.8%
90 | CC1(C(=O)NC2CCCCC2)Cc2ccccc2C(=O)N1Cc1ccc(F)cc1 (centres undefined) | inactive: 1.35%
91 | CN(C)S(=O)(=O)c1ccc(NC(=O)COc2ncnc3c2cnn3-c2ccccc2)cc1 | inactive: 7.76%
92 | Cc1cc(N)n(-c2ccc(C)c(C)c2)n1 | inactive: -4.3%
93 | CCOC(=O)N1CCN(C(=O)COc2ccc(Cl)c(C)c2)CC1 | inactive: 12.5%
94 | Cc1cc(S(=O)(=O)NCC(C)C)ccc1OCC(=O)NCc1ccco1 | inactive: 10.5%
95 | O=C(CCc1ccccc1)NC(=S)Nc1ccc2c(c1)C(=O)OC2 | inactive: 6.79%
96 | CN(C(=O)CSc1nc2c(c(=O)[nH]1)CCC2)c1ccccc1 | inactive: 0.89%
97 | O=C(c1ccc([N+](=O)[O-])cc1)N1CCN(C(=O)c2cccs2)CC1 | inactive: -0.729%
98 | O=C(COc1ccc(Cl)cc1)NCc1nnc(SCC(=O)NC2CCCC2)o1 | inactive: -4.93%
99 | CCC(C(=O)OCC(=O)Nc1ccccc1-c1ccccc1)c1ccccc1 (centres undefined) | inactive: 8.96%
100 | O=[N+]([O-])c1cccc(-c2nnc3n2CCCCC3)c1 | inactive: -13.9%
101 | Oc1ccc(Br)cc1C=Nc1cccn2cc(-c3ccccc3)nc12 | inactive: -9.13%
102 | NC(=O)CSc1nnc(-c2cnccn2)n1-c1ccccc1 | inactive: -7.79%
103 | O=C(COC(=O)CCC(=O)c1ccc(Cl)cc1)NCc1ccc(F)cc1 | inactive: 3.14%
104 | Cc1ccc(O)c(CCc2ccc(O)cc2)n1 | inactive: -17%

Reference: PubChem BioAssay AID1347073 (National Center for Advancing Translational Sciences (NCATS), 2019)
